Results as given in the supplement of paper PMC10338343.
± gives the standard deviation. Only a part is listed here, and it is no random draw.

Tested on: MIWI (PIWIL1) piRISC loaded with L1MC piRNA (30 nt)
Assay: pre-steady-state target cleavage rate (min^-1); MIWI and MILI are mouse PIWI proteins and EfPiwi is from a freshwater sponge; tags in brackets are library labels; higher = faster piRNA-guided slicing of the target
Details: guide: L1MC piRNA 5'p-UAACUAAAUACUAUGCAAGCUGUAGGUCCU
How it was run: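 A transcribed, DNA-blocked target RNA library […] was incubated at 33 °C for 0–8 or 0–960 min with 1 nM active affinity-purified piRISC carrying one synthetic guide, in HEPES–potassium acetate buffer with or without 500 nM GTSF1 partner protein. Uncleaved targets were then sequenced and normalised to depth and to weakly complementary targets. Data from three trials were pooled, with k3 capped at 0.0001 min^-1, and a burst-and-steady-state fit yielded the pre-steady-state cleavage rate.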

[1] = auxiliary factor: 500 nM mouse GTSF1
[2] = auxiliary factor: none (no GTSF1)
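Also: 1 nM active piRISC with 0.1 nM target library at 33 °C single turnover.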

| Sequence | pre-steady-state target cleavage rate [1] | pre-steady-state target cleavage rate [2] |
| --- | --- | --- |
| UCCUGCUACAGCUUGCAUAGUAUUUAGUUU [g2:g25:cont:t1U] | 0.948 ± 0.054 | 0.0784 ± 0.018 |
| UCCACCUACAGCUUGCAUAGAAUAUAGUUA | 0.275 ± 0.029 | 0.0055 ± 0.0021 |
| UCCACGAUCAGCUUGCAUAGUAUUUAGUAA | 1.09 ± 0.079 | 0.0387 ± 0.009 |
| UCCUGGAUGUGCUUGCAUAGUAUUUACAUA | 0.08 ± 0.017 | 0.0058 ± 0.0031 |
| UCGACCUACAGCAUGCAUAGUAUAUAGUUA | 0.982 ± 0.062 | 0.016 ± 0.0035 |
| UCCUGGAUGUGCUAGCAUUGUAUUUAGUUA | 0.00699 ± 0.0027 | 0.00416 ± 0.0027 |
| AGGACGUACAGCUUGCAUAGUAUUUACUUA | 0.241 ± 0.037 | 0.0278 ± 0.0051 |
| UCGAGCUACAGCUUGCAUAGUAAUUAGUUA | 0.979 ± 0.058 | 0.0253 ± 0.0057 |
| UCGACCUACAGCUUGCAUAGUUAUUAGUAA | 0.159 ± 0.025 | 0.00436 ± 0.0022 |
| UGGACCUACAGCUUGCAUGUAUUUAGUUA | 0.353 ± 0.055 | 0.00423 ± 0.0025 |
| UGGACCUACAGCUUGCAUAGUUUAUAGUUA | 0.103 ± 0.011 | 0.0119 ± 0.0036 |
| UCCUGGAUCAGCUUGCAUAGUAUUUUCAAA | 0.206 ± 0.025 | 0.00365 ± 0.0025 |
| UCGAGCUAGAGCUUGCAUAGUAUUUAGUUA | 0.962 ± 0.051 | 0.0483 ± 0.0092 |
| UCCACCUACAGCUUGCAUAGUUAUUAGUUA | 0.157 ± 0.021 | 0.0113 ± 0.0028 |
| UCCUGGUACAGCUUGCAUAGUACUUAGUUA | 0.347 ± 0.039 | 0.0342 ± 0.0068 |
| UCCACCUACAGCAUGGAUAGUAUUUAGUUA | 1.34 ± 0.062 | 0.0231 ± 0.0039 |
| UCCUGGAUCAGCUUGCAUACUAUUUAGAAA | 0.0617 ± 0.018 | 0.00418 ± 0.0036 |
| UCCUGGAUCAGCUUGCAUAGUAUAAUGUUA | 0.299 ± 0.021 | 0.00843 ± 0.0028 |
| UCCUGGAUCAUCUUGCAUAGUAUUUAGUUA | 0.83 ± 0.051 | 0.0176 ± 0.0051 |
| UCCACCAUCAGCUUGCAUAGUAUUUAGUUA | 1.23 ± 0.044 | 0.0574 ± 0.0082 |
| UCCUGGAUGUGCUUGCAUAGUGUUUAGUUA | 0.245 ± 0.019 | 0.0403 ± 0.01 |
| UCCUCGCUACAGCUUGCAUAGUAUUUAGUUA | 0.831 ± 0.05 | 0.0517 ± 0.0088 |
| UCCACCUAGAGCUUGCAUUGUAUUUAGUUA | 0.568 ± 0.056 | 0.0183 ± 0.0036 |

| Sequence | pre-steady-state target cleavage rate [1] | pre-steady-state target cleavage rate [2] |
| --- | --- | --- |
| UCCUGGAUGAGGUUGCUUAGUAUUUAGUUA | 0.0351 ± 0.0041 | 0.00323 ± 0.003 |
| UCCUGGAACAGCUUGCAUAGUAUUUAGUUU [g2:g23:cont:t1U] | 0.994 ± 0.031 | 0.0717 ± 0.015 |
| UCGACCUACUGCUUGCAUAGUAUAUAGUUA | 0.819 ± 0.036 | 0.0363 ± 0.0084 |
| UCGACCUACACCUUGCAUAGAAUUUAGUUA | 0.395 ± 0.07 | 0.0128 ± 0.0024 |
| UCGACCUACAGCUUGCAUAGUAUUCAGUUA | 0.854 ± 0.06 | 0.0403 ± 0.0073 |
| AGGACCUACAGCAUGCAUAGUAUUUAGAAA | 0.577 ± 0.059 | 0.00715 ± 0.0031 |
| UCCUGCUACUGCUUGCAUAGUUUUUAGUUA | 0.248 ± 0.024 | 0.0289 ± 0.0066 |
| UCCACGAACAGCUUGCAUAGUAUUUACAAA | 0.324 ± 0.044 | 0.00348 ± 0.0024 |
| UCCUGCUACAGCUUGGAUAGUAUUUUGUUA | 0.711 ± 0.062 | 0.022 ± 0.0045 |
| UGGAGGAACAGCUUGCAUAGUAUUUAGUUA | 1.26 ± 0.049 | 0.0795 ± 0.015 |
| UCCUCCUACUCGUUGCAUAGUAUUUAGUUA | 0.909 ± 0.036 | 0.0157 ± 0.0034 |
| UCCACCUACAGCUCGCAUAGUAUUUAGUUA | 1.11 ± 0.043 | 0.0579 ± 0.012 |
| AGGACCAUGAGCUUGCAUAGUAUUUAGAAA | 0.214 ± 0.023 | 0.00613 ± 0.0024 |
| UCCACGAACAGCUUGCAUAGUAUUUAGUUA | 1.05 ± 0.03 | 0.0671 ± 0.01 |
| UCCUGGAUCAGCUAGGAUAGUAUUUAGUUA | 0.414 ± 0.043 | 0.00285 ± 0.0027 |
| UCCUGCUACAGGAAGCAUAGUAUUUAGUAA | 0.403 ± 0.063 | 0.00245 ± 0.0018 |
| UGGACGUACAGCUUGCAUACUAUUUAGUUA | 0.291 ± 0.018 | 0.0302 ± 0.0064 |
| UCCUGGAACAGGUUGCAUAGUAUAUAGUUA | 0.426 ± 0.034 | 0.00898 ± 0.0024 |
| UCCUGCUUCACCUUGCAUAGUAUUUAGUUA | 0.818 ± 0.048 | 0.0243 ± 0.0069 |
| UCCUGGUACAACUUGCAUAGUAUUUAGUUA | 0.855 ± 0.044 | 0.0552 ± 0.011 |
| UCCACCUACAGCAUGCUUAGUAUUUAGUUA | 0.723 ± 0.041 | 0.0103 ± 0.0018 |
| UCCACCUACAGGAUGCAUAGUAUUUAGUUA | 1.06 ± 0.17 | 0.00912 ± 0.0014 |
